{"source": "the supplement of paper PMC8512760", "note": "Structures can show the parent of a compound that is named as a salt. This is one part of the list. Most values come without repeats; read them as rough.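 Also: stably firefly luciferase-GFP labeled cells in 96-well plates, viability read as luciferase photon flux after d-luciferin addition, treated wells normalized to vehicle wells, single-dose high-throughput screen.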"}
{"system": "HCC-1143", "assay": "cell viability relative to vehicle (% of vehicle); basal-like triple-negative breast cancer lines; higher = less cytotoxic", "conditions": "10 µM; 72 h"}
{"smiles": "O=c1cc[nH]c(=O)[nH]1", "note": "[Uracil]", "cell viability": 78.5}
{"smiles": "O=C([O-])CC(O)CC(O)C=Cc1c(C2CC2)nc2ccccc2c1-c1ccc(F)cc1.O=C([O-])CC(O)CC(O)C=Cc1c(C2CC2)nc2ccccc2c1-c1ccc(F)cc1.[Ca+2]", "note": "(stereo not given) [Pitavastatin Calcium]", "cell viability": 54.7}
{"smiles": "CN(C)CC(c1ccc(O)cc1)C1(O)CCCCC1.O.O=C(O)CCC(=O)O", "note": "(stereo not given) [Desvenlafaxine Succinate]", "cell viability": 74.7}
{"smiles": "N#CC1CC2CC2N1C(=O)C(N)C12CC3CC(CC(O)(C3)C1)C2", "note": "(stereo not given) [Saxagliptin]", "cell viability": 88.2}
{"smiles": "O=C([O-])c1cc(=O)c2c(OCC(O)COc3cccc4oc(C(=O)[O-])cc(=O)c34)cccc2o1.[Na+].[Na+]", "note": "[Cromolyn sodium]", "cell viability": 74.5}
{"smiles": "CCOC(=O)C1=CC(OC(CC)CC)C(NC(C)=O)C(N)C1", "note": "(stereo not given) [Oseltamivir]", "cell viability": 89.9}
{"smiles": "CC(C)(C)N.CCCC(NC(C)C(=O)N1C(C(=O)O)CC2CCCCC21)C(=O)OCC", "note": "(stereo not given) [Perindopril Erbumine]", "cell viability": 78.2}
{"smiles": "CC(=O)Nc1ccccc1", "note": "[Acetanilide]", "cell viability": 80.1}
{"smiles": "Cl.O=C1NCC2(CCN(CCc3ccccc3)CC2)O1", "note": "[Fenspiride HCl]", "cell viability": 70}
{"smiles": "CN(C)CCc1c[nH]c2ccc(CC3COC(=O)N3)cc12", "note": "(stereo not given) [Zolmitriptan]", "cell viability": 72.6}
{"smiles": "Cl.NC(CO)C(=O)NNCc1ccc(O)c(O)c1O", "note": "(stereo not given) [Benserazide HCl]", "cell viability": 75.2}
{"smiles": "OCC1OC(OC2(CCl)OC(CCl)C(O)C2O)C(O)C(O)C1Cl", "note": "(stereo not given) [Sucralose]", "cell viability": 69.6}
{"smiles": "CC(=O)O.NC(N)=NN=Cc1c(Cl)cccc1Cl", "note": "[Guanabenz Acetate]", "cell viability": 92.1}
{"smiles": "CCCCCCCCCCCCCCCCO", "note": "[1-Hexadecanol]", "cell viability": 79.5}
{"smiles": "Nc1nc(=O)n(C2CSC(CO)O2)cc1F", "note": "(stereo not given) [Emtricitabine]", "cell viability": 81.4}
{"smiles": "Cc1nnc(C(C)C)n1C1CC2CCC(C1)N2CCC(NC(=O)C1CCC(F)(F)CC1)c1ccccc1", "note": "(stereo not given) [Maraviroc]", "cell viability": 91.1}
{"smiles": "COc1ccccc1OCC(O)CN1CCN(CC(=O)Nc2c(C)cccc2C)CC1.Cl.Cl", "note": "(stereo not given) [Ranolazine 2HCl]", "cell viability": 80.5}
{"smiles": "CN1CCC(=C2c3ccccc3C=Cc3ccccc32)CC1.Cl", "note": "[Cyproheptadine hydrochloride]", "cell viability": 74.7}
{"smiles": "CN(C)c1ccc(C(=C2C=CC(=[N+](C)C)C=C2)c2ccc(N(C)C)cc2)cc1.[Cl-]", "note": "[Crystal Violet]", "cell viability": 20.1}
{"smiles": "Oc1ccc(OCc2ccccc2)cc1", "note": "[Monobenzone]", "cell viability": 147}
{"smiles": "CCOC(=O)n1ccn(C)c1=S", "note": "[Carbimazole]", "cell viability": 72.4}
{"smiles": "CNC(=O)C(NC(=O)C(CC(C)C)C(O)C(=O)NO)C(C)(C)C", "note": "(stereo not given) [Marimastat]", "cell viability": 74.8}
{"smiles": "CCN1CCCC1CNC(=O)c1cc(S(=O)(=O)CC)c(N)cc1OC", "note": "(stereo not given) [Amisulpride]", "cell viability": 91.1}
{"smiles": "Cl.O=S(=O)(c1cccc2cnccc12)N1CCCNCC1", "note": "[Fasudil (HA-1077) HCl]", "cell viability": 89.3}
{"smiles": "CNCC(O)C(O)C(O)C(O)CO.Cc1c(Nc2ncccc2C(=O)O)cccc1C(F)(F)F", "note": "[Flunixin Meglumin]", "cell viability": 103}
{"smiles": "CC1=NS(=O)(=O)c2cc(Cl)ccc2N1", "note": "[Diazoxide]", "cell viability": 79.3}
{"smiles": "O=C(O)CCNC(=O)c1ccc(/N=N/c2ccc(O)c(C(=O)O)c2)cc1", "note": "[Balsalazide]", "cell viability": 84.9}
{"smiles": "CC(C)c1cc(C(=O)N2Cc3ccc(CN4CCN(C)CC4)cc3C2)c(O)cc1O", "cell viability": 47.7}
{"smiles": "CNC(=C[N+](=O)[O-])NCCSCc1csc(CN(C)C)n1", "note": "[Nizatidine]", "cell viability": 79.8}
{"smiles": "CN1CCN(c2cc3c(cc2F)c(=O)c(C(=O)O)cn3-c2ccc(F)cc2)CC1", "note": "[Difloxacin HCl]", "cell viability": 77.7}
{"smiles": "COc1ccc(C[C@H](N)C(=O)N[C@@H]2[C@H](O)[C@H](n3cnc4c(N(C)C)ncnc43)O[C@@H]2CO)cc1.Cl.Cl", "note": "[Puromycin dihydrochloride]", "cell viability": 20.8}
{"smiles": "COc1ccc(CNc2nc(N3CCCC3CO)ncc2C(=O)NCc2ncccn2)cc1Cl", "note": "(stereo not given) [Avanafil]", "cell viability": 135}
{"smiles": "CC[C@]1(O)C[C@H]2CN(CCc3c([nH]c4ccccc34)[C@@](C(=O)OC)(c3cc4c(cc3OC)N(C=O)[C@H]3[C@@](O)(C(=O)OC)C(OC(C)=O)[C@]5(CC)C=CCN6CC[C@]43C65)C2)C1.O=S(=O)(O)O", "note": "(stereo not given in full) [Vincristine]", "cell viability": 62.7}
{"smiles": "CC(=O)O[C@H]1C[C@@]2(C)[C@@H](C[C@@H](O)[C@H]3[C@@]4(C)CC[C@@H](O)[C@@H](C)[C@@H]4CC[C@@]32C)/C1=C(\\CCC=C(C)C)C(=O)[O-].[Na+]", "note": "[Fusidic Acid (sodium salt)]", "cell viability": 69}
{"smiles": "CN1CCN2c3ncccc3Cc3ccccc3C2C1", "note": "(stereo not given) [Mirtazapine]", "cell viability": 93.4}
{"smiles": "COC(=O)Nc1nc2cc(C(=O)c3ccccc3)ccc2[nH]1", "note": "[Mebendazole]", "cell viability": 73.5}
{"smiles": "NCC1OC(OC2C(N)CC(N)C(OC3OC(CO)C(O)C(N)C3O)C2O)C(N)CC1O", "note": "(stereo not given) [Tobramycin]", "cell viability": 69.5}
{"smiles": "CN(C)NN=C1N=CN=C1C(N)=O", "note": "[Dacarbazine]", "cell viability": 88.6}
{"smiles": "NCCCC(O)(P(=O)([O-])O)P(=O)(O)O.[Na+]", "note": "[Alendronate sodium]", "cell viability": 69}
{"smiles": "O=C(O)c1ccc2ccccc2c1O.OCc1cc(C(O)CNCCCCCCOCCCCc2ccccc2)ccc1O", "note": "(stereo not given) [Salmeterol xinafoate]", "cell viability": 85.1}
